According to the supplement of paper PMC6089552:
Screen size: about 3,200 compounds; about 300 (9.4%) showed activity. Only a part is listed here, and it is no random draw.

System: A673/TR/shEF
Assay: cell viability (LOESS-normalised, relative to median of negative controls) (log2 ratio); higher = more viable cells (less compound effect), active = hit call of the paper (over 3 MAD below the median)
Conditions: treatment time: 72 h
In short: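 Doxycycline, present or absent from 24 h before compounds, was used to induce EWS-FLI1 shRNA knockdown in A673/TR/shEF Ewing sarcoma cells at 1,500 per well in 384-well plates. Cells then received library compounds at two or more concentrations, or DMSO controls, for three days. Viability was measured by CellTiter-Glo luminescence on an Envision reader, and per-plate LOESS correction, division by the negative-control median and log2 transformation followed.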

[1] = 0.25 µM, library screen: screen1, EWS-FLI1 expression: high (no doxycycline)
[2] = 0.25 µM, library screen: screen1, EWS-FLI1 expression: low (doxycycline-induced shRNA knockdown)
[3] = 2.5 µM, library screen: screen1, EWS-FLI1 expression: high (no doxycycline)
[4] = 2.5 µM, library screen: screen1, EWS-FLI1 expression: low (doxycycline-induced shRNA knockdown)
[5] = 0.25 µM, library screen: screen2, EWS-FLI1 expression: high (no doxycycline)
[6] = 0.25 µM, library screen: screen2, EWS-FLI1 expression: low (doxycycline-induced shRNA knockdown)
[7] = 2.5 µM, library screen: screen2, EWS-FLI1 expression: high (no doxycycline)
[8] = 2.5 µM, library screen: screen2, EWS-FLI1 expression: low (doxycycline-induced shRNA knockdown)
[9] = 0.103 µM, library screen: screen3, EWS-FLI1 expression: high (no doxycycline)
[10] = 0.103 µM, library screen: screen3, EWS-FLI1 expression: low (doxycycline-induced shRNA knockdown)
[11] = 0.308 µM, library screen: screen3, EWS-FLI1 expression: high (no doxycycline)
[12] = 0.308 µM, library screen: screen3, EWS-FLI1 expression: low (doxycycline-induced shRNA knockdown)
[13] = 0.926 µM, library screen: screen3, EWS-FLI1 expression: high (no doxycycline)
[14] = 0.926 µM, library screen: screen3, EWS-FLI1 expression: low (doxycycline-induced shRNA knockdown)
[15] = 2.8 µM, library screen: screen3, EWS-FLI1 expression: high (no doxycycline)
[16] = 2.8 µM, library screen: screen3, EWS-FLI1 expression: low (doxycycline-induced shRNA knockdown)
[17] = 8.3 µM, library screen: screen3, EWS-FLI1 expression: high (no doxycycline)
[18] = 8.3 µM, library screen: screen3, EWS-FLI1 expression: low (doxycycline-induced shRNA knockdown)
[19] = 25 µM, library screen: screen3, EWS-FLI1 expression: high (no doxycycline)
[20] = 25 µM, library screen: screen3, EWS-FLI1 expression: low (doxycycline-induced shRNA knockdown)

Measured: cell viability (log2)

CCOC(=O)c1c[nH]c2c(C)cccc2c1=O
inactive: [1] 0.111 | [2] 0.0771 | [3] 0.1 | [4] -0.0609

O=C(O)CN(CCN(CC(=O)O)CC(=O)O)CC(=O)O
inactive: [1] 0.122 | [2] 0.135 | [3] 0.205 | [4] 0.185

CC(C)(C)[C@]1(O)CCN2CC3c4ccccc4CCc4cccc(c43)[C@@H]2C1 (stereo partly specified)
inactive: [5] 0.166 | [6] 0.165 | [7] 0.11 | [8] 0.076

CO[C@H]1/C=C/O[C@@]2(C)Oc3c(C)c(O)c4c(O)c(c5c(nc6cc(C)ccn65)c4c3C2=O)NC(=O)/C(C)=C\C=C\[C@H](C)[C@H](O)[C@@H](C)[C@@H](O)[C@@H](C)[C@H](OC(C)=O)[C@@H]1C
inactive: [9] -0.0707 | [10] 0.0464 | [11] 0.0386 | [12] 0.036 | [13] -0.103 | [14] 0.0741 | [15] 0.0459 | [16] 0.0491 | [17] 0.0185 | [18] 0.0543 | [19] -0.064 | [20] -0.0313

C[C@]12C=CC(=O)N[C@@H]1CC[C@@H]1[C@@H]2CC[C@]2(C)[C@@H](C(=O)Nc3cc(C(F)(F)F)ccc3C(F)(F)F)CC[C@@H]12
inactive: [9] 0.0707 | [10] 0.0111 | [11] -0.025 | [12] 0.08 | [13] 0.071 | [14] 0.105 | [15] 0.0417 | [16] 0.0227 | [17] 0.0762 | [18] 0.023 | [19] 0.139 | [20] 0.0563

Clc1cccc(Cl)c1NC1=NCCN1
inactive: [9] 0.051 | [10] 0.0573 | [1] 0.0339 | [2] 0.0998 | [5] 0.154 | [6] 0.0974 | [11] 0.063 | [12] 0.0667 | [13] 0.0404 | [14] 0.0791 | [3] 0.0959 | [4] 0.141 | [7] 0.124 | [8] 0.0925 | [15] 0.0651 | [16] 0.0423 | [17] 0.0821 | [18] -0.0179 | [19] 0.00253 | [20] 0.054

CCN(CC)C(C)CN1c2ccccc2Sc2ccccc21 (stereo unspecified)
inactive: [1] 0.13 | [2] 0.0955 | [3] 0.209 | [4] 0.294

CCCNC(=O)NS(=O)(=O)c1ccc(Cl)cc1
inactive: [1] 0.113 | [2] 0.0415 | [5] 0.233 | [6] 0.0846 | [3] 0.176 | [4] 0.0747 | [7] 0.0486 | [8] 0.0715

C=CC(C)(C)c1c2c(c(O)c3c(=O)c4ccc(O)c(O)c4oc13)C=CC(C)(C)O2
inactive: [1] -0.0194 | [2] 0.182 | [3] -0.0746 | [4] 0.15

COc1cc(CN2CCN(Cc3cccc(F)c3)CC2)cc2c1OCO2
inactive: [1] 0.0873 | [2] 0.0661 | [3] 0.0312 | [4] 0.0566

CNCCc1ccccn1
inactive: [1] 0.113 | [2] 0.0801 | [3] 0.145 | [4] 0.116

CCOC(=O)[C@H]1O[C@@H]1C(=O)N[C@@H](CC(C)C)C(=O)NCCC(C)C
inactive: [5] 0.0895 | [6] 0.083 | [7] 0.149 | [8] 0.0496

Cn1cc[nH]c1=S
inactive: [9] 0.0612 | [10] 0.0479 | [1] 0.118 | [2] 0.0971 | [11] 0.131 | [12] 0.0443 | [13] 0.019 | [14] 0.0538 | [3] 0.173 | [4] 0.18 | [15] -0.00547 | [16] 0.0117 | [17] 0.0311 | [18] 0.0678 | [19] 0.0326 | [20] 0.0833

NC(Cn1ccc(=O)c(O)c1)C(=O)O (stereo unspecified)
inactive: [1] 0.0522 | [2] -0.0418 | [3] 0.144 | [4] 0.00731

CC1=NS(=O)(=O)c2cc(Cl)ccc2N1
inactive: [5] 0.0993 | [6] 0.0504 | [7] 0.157 | [8] 0.101

CC(C)NCC(O)COc1ccc(CC(N)=O)cc1 (stereo unspecified)
inactive: [1] 0.112 | [2] -0.13 | [5] 0.0893 | [6] 0.153 | [3] 0.197 | [4] 0.0109 | [7] 0.101 | [8] 0.141
